From patent publication US8513219B2, “Substituted phosphonates and their use in decreasing amyloid aggregates” (Queen Mary & Westfield College, University of London, priority 2007, dated 2013) come the findings set out here.

Like-named read-outs stand apart in the source and are kept apart here.

The assay concerns zinc in the brain parenchyma. To be noted: 4 days, mice.

Consider `Oc1c(I)cc(Cl)c2cccnc12` [Clioquinol, reference compound], for which the “zinc staining signal in the central nervous system” value by setting is: (10 mg/kg i.p.) “Marked decreases”; (30 mg/kg p.o.) “Decreases in the zinc signal”.
